# Assay results reported in PubChem BioAssay AID488969 (Vanderbilt High Throughput Screening Facility, 2010).
# Over roughly 110,000 compounds, “z-score” has its median near -0.1; the highest 2% begin near 2. Some of the results follow. Activity calls are given as the source filed them.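 How the source made its calls: active means z-score in the third read window above 3 or below -3; inactive means the rest.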
# Target: Metabotropic glutamate receptor 8 (Rattus norvegicus) (UniProt P70579)
# Assay: rat mGluR8 modulators via GIRK flux, primary screen, cell-based, thallium flux, HTS (AID 488969)
# Conditions: HEK293 rat mGluR8, GIRK (G protein-gated inwardly rectifying potassium channel) thallium flux, FluoZin2; at 10 µM; stronger effect = higher value; submaximal glutamate (EC20) added with thallium
# Chain of UniProt P70579 (P70579 whole entry, looked up): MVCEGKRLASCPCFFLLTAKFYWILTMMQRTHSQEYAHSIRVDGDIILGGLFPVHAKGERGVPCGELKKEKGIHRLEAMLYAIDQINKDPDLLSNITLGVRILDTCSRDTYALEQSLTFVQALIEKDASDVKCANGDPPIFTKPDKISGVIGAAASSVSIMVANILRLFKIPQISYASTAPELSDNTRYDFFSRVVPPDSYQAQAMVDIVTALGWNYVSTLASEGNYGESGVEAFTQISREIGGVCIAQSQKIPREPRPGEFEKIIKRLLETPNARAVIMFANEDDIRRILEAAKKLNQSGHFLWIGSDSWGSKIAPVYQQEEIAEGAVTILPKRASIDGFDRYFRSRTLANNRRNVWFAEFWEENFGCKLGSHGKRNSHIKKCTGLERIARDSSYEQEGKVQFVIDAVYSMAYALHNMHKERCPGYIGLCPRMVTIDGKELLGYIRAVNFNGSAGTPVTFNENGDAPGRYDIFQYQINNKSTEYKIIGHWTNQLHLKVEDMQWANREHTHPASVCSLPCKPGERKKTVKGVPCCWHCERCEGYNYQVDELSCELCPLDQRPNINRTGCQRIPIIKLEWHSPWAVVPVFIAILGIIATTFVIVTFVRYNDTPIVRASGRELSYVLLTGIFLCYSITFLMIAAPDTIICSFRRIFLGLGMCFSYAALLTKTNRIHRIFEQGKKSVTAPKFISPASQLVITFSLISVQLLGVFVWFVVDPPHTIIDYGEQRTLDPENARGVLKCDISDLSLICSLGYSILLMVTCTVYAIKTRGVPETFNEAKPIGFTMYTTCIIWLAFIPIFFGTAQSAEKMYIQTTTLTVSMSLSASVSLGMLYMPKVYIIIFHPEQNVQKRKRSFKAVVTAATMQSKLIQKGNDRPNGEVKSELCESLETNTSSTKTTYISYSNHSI
row,Compound,z-score
1,COc1cccc(C(=O)O/N=C(\N)c2ccc([N+](=O)[O-])cc2)c1,0.0273
2,COc1cc(S(=O)(=O)N2CCN(C)CC2)c(OC)cc1Br,0.054
3,O=C(COC(=O)/C=C/c1ccc(S(=O)(=O)N2CCCCCC2)cc1)NCc1ccccc1Cl,-0.0875
4,CC1CCN(c2oc(Cc3cccc4ccccc34)nc2C#N)CC1,-0.0445
5,O=C1OCCC1Sc1nnc(-c2ccc(F)cc2)n1Cc1ccccc1 (stereo not given),-0.224
6,N#Cc1nc(-c2ccccc2Cl)oc1NCc1ccco1,-0.953
7,O=C(c1ccc(=O)[nH]c1)N(Cc1ccco1)C1(C(=O)NC2CCCC2)CCCCC1,-0.226
8,CCN(CC(=O)NCCc1ccccc1)S(=O)(=O)c1ccc(Br)cc1,-0.166
9,Cc1ccc(S(=O)(=O)CCC(=O)NCc2ccccc2)cc1,-0.064
10,CCOC(=O)CSc1nnc(CNC(=O)c2cccs2)n1-c1cc(OC)ccc1OC,-0.34
11,O=S1(=O)CC(O)C(Nc2ccc(Cl)cc2)C1 (stereo not given),0.00894
12,O=C1CN(C(=O)CCCc2c[nH]c3ccccc23)c2ccccc2N1,-0.0819
13,Cc1ccc(NC2CC(=O)N(CCc3ccccc3)C2=O)cc1 (stereo not given),-1.86
14,CCSCc1nnc(SCC(=O)Nc2nc3ccccc3s2)n1C,-0.202
15,CCc1cc(C(=O)OC)c(NC(=O)CC2Sc3ccc(C(F)(F)F)cc3NC2=O)s1 (stereo not given),-0.0252
16,CC1=C(/C=N/Nc2ccc([N+](=O)[O-])cc2[N+](=O)[O-])C(C)(C)CCC1,-0.388
17,O=C(N/N=C/c1ccc[nH]1)c1ccccc1[N+](=O)[O-],-0.104
18,O=C(CN1CCCCC1)Nc1cccc(Br)c1,0.475
19,COc1ccc(C(=O)Nc2ccc(Cl)c(S(=O)(=O)Nc3ccccc3OC)c2)cc1,-0.653
20,CCN(CC)C(=O)CC(c1ccccc1)c1ccco1 (stereo not given),0.0642
21,O=C(NC(=S)NCCc1ccccc1)C1CCCCC1,0.986
22,COc1cc(/C=N/Nc2nc3ccccc3[nH]2)cc(OC)c1O,-0.634
23,O=C(Nc1ccc(-c2nc3ccccc3o2)cc1)c1cc(-n2cnnc2)ccc1Cl,1.67
24,CCOC(=O)C1CCN(CCC(=O)Nc2cccc(Cl)c2C)CC1,0.732

row,Compound,z-score
1,O=C(OCc1ccc(Cl)c(Cl)c1)c1cnccn1,-0.507
2,O=C(NCCN1CCOCC1)c1cc2n(n1)C(C(F)(F)F)CC(c1ccc(F)cc1)N2 (stereo not given),0.155
3,CCOC(=O)N1CCN(S(=O)(=O)c2ccc(OC)c(Cl)c2)CC1,0.678
4,COc1cc2c(cc1OC)-c1cc(Nc3ccc4c(c3)OCCO4)nc(=O)n1CC2,-1.37
5,CNC(=O)CN1C(=O)CSc2ncccc21,0.227
6,COP(=O)(OC)c1nc(-c2ccccc2)oc1N1CCOCC1,-0.0566
7,N#C/C(=C\c1c(N2CCOCC2)nc2ccccn2c1=O)S(=O)(=O)c1ccccc1,0.452
8,COc1cccc2[nH]c3c(Cl)ncnc3c12,0.132
9,COc1cccc(/C=N/NC(=O)c2csc(-n3nc(C)cc3C(F)(F)F)n2)c1,0.106
10,CCN=C(Nc1ccc2c(c1)OCO2)SC1CC(=O)N(c2ccc(OC)cc2)C1=O (stereo not given),-0.574
11,CCOC(=O)c1c(NC(=O)c2ccccc2C)sc2c1CC(C)(C)OC2,-0.332
12,CCOC(=O)c1c(C)[nH]c(C)c1C(=O)CSc1nc2ccccc2c(=O)n1-c1ccc(Cl)cc1,0.08
13,O=C(Nc1ccc(C(F)(F)F)cc1-c1ccccc1)c1ccccc1,-0.107
14,OC(c1cccc(OCc2ccccc2)c1)c1nnc(-c2ccccc2)o1 (stereo not given),-1.11
15,Cc1nc(SCC(=O)NCc2ccc(F)cc2)c2c(=O)n(C)c(=O)n(C)c2n1,-0.598
16,CC(=O)c1ccc(NC(=O)COC(=O)c2ccccc2Sc2ccccc2C#N)cc1,0.189
17,COc1ccccc1CNC(=O)C(Cc1c[nH]c2ccccc12)NC(=O)OCc1ccccc1 (stereo not given),-0.903
18,CC(C)(C)n1cnc2cc(NS(=O)(=O)c3ccc(Br)cc3)ccc21,-0.965
19,CCCCNC(=O)CN1C(=O)NC2NC(=O)NC21 (stereo not given),0.25
20,CCc1c(O)c(/C(C)=N\O)c(=O)n(-c2ccccc2)c1-c1ccccc1,-0.396
21,O=S(=O)(c1cccs1)N1CCN(c2ccccn2)CC1,0.146
22,Cn1cccc1CC(=O)N/N=C/c1cccc2ccccc12,-0.261
23,CC1CCCCN1C(=O)Cc1ccc(F)cc1 (stereo not given),0.287
24,COc1ccc(C(=O)N/C(=C\c2ccco2)C(=O)NCCCn2ccnc2)cc1,-0.12

row,Compound,z-score
1,CC(=O)Nc1ccc(-c2nc(C)c(C(C)=O)n2O)cc1,-0.0847
2,Cc1cc(OC(=O)c2ccccc2Br)cc(=O)n1C,-0.659
3,COc1ccc(NC(=O)C2OCCc3ccccc32)c(OC)c1 (stereo not given),0.252
4,O=C(OC(C(=O)O)C(OC(=O)c1ccccc1)C(=O)NCc1ccccc1)c1ccccc1 (stereo not given),0.0339
5,Cc1cccc(C(=O)Nc2ccccc2-c2nnn(CC(=O)Nc3ccc4c(c3)OCCO4)n2)c1,-0.78
6,O=C1CC(c2ccc3c(c2)OCO3)c2cc3c(cc2N1)OCO3 (stereo not given),-0.0249
7,Oc1[nH]c(=S)sc1/C=C1\C(c2ccccc2)=Nc2ccccc21,-0.0895
8,CS(=O)(=O)N(Cc1ccccc1)c1ccc(C(=O)NCc2cccnc2)cc1,-0.23
9,OCc1nc2ccccc2n1CC(O)Cn1ccc2ccccc21 (stereo not given),0.578
10,COc1cc(CNCc2ccccn2)ccc1OCc1cccc(Cl)c1,-0.00558
11,Cc1c(C)n(CC(O)CN2C(=O)c3ccccc3S2(=O)=O)c2ccccc12 (stereo not given),0.15
12,C[n+]1c2n(c3ccccc31)N=C(c1ccccc1)CS2,-0.215
13,O=C(OCn1ncc(Br)c(Br)c1=O)c1ccc(F)cc1,-2.36
14,Cc1ccccc1OCCOc1ccccc1C=C(C#N)C#N,-0.0486
15,Cc1cc(NCCCn2ccnc2)n2c(nc3ccccc32)c1C#N,-0.361
16,Cc1cccc(N2C(=O)CC(Sc3nc(-c4ccccc4)c4cc(Cl)ccc4n3)C2=O)c1 (stereo not given),-0.887
17,COc1ccc(CCNC(=O)CCn2c(SCC#N)nc3ccccc3c2=O)cc1OC,-0.0568
18,CCOC(=O)C1C(=O)OC2(CCCCC2)C1C(=O)OCC (stereo not given),0.124
19,COc1ccccc1C1N(c2ccc(Cl)cc2)C(=O)C2CCCN21 (stereo not given),-0.39
20,CCOC(=O)c1c(C)[nH]c(O)c1C=Nc1ccc(C(F)(F)F)cc1,-0.104
21,O=C(CSc1nnc(Cn2nnc3ccccc32)o1)N(Cc1ccc(Cl)cc1)c1ccccc1,-0.17
22,O=C(NN=c1c(=O)c2ccccc2c1=O)c1ccccc1,active: 6.47
